Data reported in PubChem BioAssay AID1671193 (National Center for Advancing Translational Sciences (NCATS), 2021).
Several values for one entry are separate records, joined by “and”; a condition that tells them apart may be missing. Equal entries are not always repeated. Hit rate of the full screen: of about 150,000 compounds, about 180 (0.12%) were called active. The shares of active, inactive and inconclusive entries below differ from those in the screen. Calls follow the shape of the dose curve; as a rule, active = well fitted cell-killing curve with a large enough effect; inconclusive = small, poorly fitted or top-dose-only effect, or effect the other way; inactive = flat fitted curve, though single readings scatter. Potencies of inconclusive entries are doubtful fits and often do not repeat.

test: GF-AFC viability counterscreen for inhibitors of alpha-synuclein gene (SNCA) expression; details: HEK-293-SNCA-luc viability, GF-AFC fluorescence, 24 h; series mostly up to 57.1 µM; also: nearly all actives have a fitted effect of over 30% in size
In short: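 Cytotoxicity counterscreen: after 24 h compound treatment of genome-edited SNCA-luciferase HEK-293 cells, live-cell protease substrate GF-AFC read by fluorescence after 30 min; activity scaled between DMSO (0%) and medium-only (-100%), curves Hill-fitted.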
Potency is read from the fitted curve at half-maximal effect; tags tell the direction and shape of the fitted curve.

Structure (SMILES)	Potency
COc1ccc(-c2c(C)c3ccc(O)c(CN4CCCCC4)c3oc2=O)cc1OC	inconclusive: 28.2 µM [rising, partial curve, poor fit]
Cc1nnsc1C(=O)Nc1ccc(-n2nc(C(F)(F)F)cc2C(F)(F)F)cc1	inconclusive: 37.7 µM [cytotoxic, single point]
COc1nc2nc(CC3CC3)n(C)c2cc1-c1ccnc(C)c1	inactive
COc1ccc(-c2cc(N3CCC(NC(=O)c4cc(F)ccc4Cl)CC3)n[nH]2)cc1	inconclusive: 14.1 µM [cytotoxic, partial curve, poor fit]
CCc1ccc(CN(C(=O)c2ccc(OC)cc2)C2CCS(=O)(=O)C2)cc1 (centres undefined)	inconclusive: 25.1 µM [cytotoxic, single point]
COCC(=O)N1CCC[C@@]2(CCN(Cc3ccc(C#N)cc3)C2)C1	inconclusive: 3.16 µM [cytotoxic, partial curve, poor fit]
COCCNC(=O)C(C)(C)Oc1nn(Cc2cccc(Cl)c2)c2ccccc12	inconclusive: 12.6 µM [cytotoxic, full curve, poor fit]
O=C(CCS(=O)(=O)c1nc(-c2cccs2)cc(C(F)(F)F)n1)Nc1ccc(Br)cc1	inconclusive: 31.6 µM [cytotoxic, partial curve, poor fit]
CN1CCC2(C1)CN(CC1CC1)c1ccc(C(=O)NCC3CC3)cc12 (centres undefined)	inactive
CN1Cc2ccc(NCc3ccccc3)nc2C(C)(C(=O)Nc2ccccc2)C1 (centres undefined)	inconclusive: 31.6 µM [cytotoxic, partial curve, poor fit]
CC(C)[C@@H]1CN(C(=O)c2cc(N3CCCCC3)ccc2Cl)C[C@H]1N(C)C	inactive
Cn1cc(-c2cnn3c(N)c(Br)c([C@@H]4CCCNC4)nc23)cn1	inactive
Cc1cccc(CNC(=O)C2CC(c3ccc(F)c(C)c3)CN(C(=O)c3ccccc3)C2)c1 (centres undefined)	inactive
Cc1cc(C)cc(NC(=O)Cn2cc(C(=O)c3ccncc3)c(=O)c3cc(C)c(C)cc32)c1	inconclusive: 39.8 µM [cytotoxic, single point]
CCC(=O)N1CCc2c(C(=O)NCc3ccc(OC(C)C)cc3)cccc21	inconclusive: 39.8 µM [cytotoxic, single point]
CCCNC(=O)C1CCCCc2nnc(-c3ccccc3)n21 (centres undefined)	inactive
COc1cccc(NC(=O)CCSc2nc(-c3ccco3)cc(C(F)(F)F)n2)c1	inconclusive: 28.2 µM [rising, partial curve, poor fit]
Cc1noc(-c2cccc(OC3CN(C(=O)Nc4ccccc4)C3)c2)n1	inactive
COc1ccc(C(=O)N[C@@H]2CN(Cc3ccncc3)C[C@H]2CN(C)C)c(OC)c1	inconclusive: 12.6 µM [cytotoxic, partial curve]
Cc1ccccc1-n1cc(-c2ccnc(NC(C)Cc3ccncc3)n2)cn1 (centres undefined)	inconclusive: 28.2 µM [cytotoxic, partial curve, poor fit]

Structure (SMILES)	Potency
Cc1nc2c(c(-c3ccc(Cl)cc3)n1)CCN(C(=O)Nc1ccc(Cl)cc1)CC2	inconclusive: 35.5 µM [cytotoxic, partial curve, poor fit]
Cc1ccc2oc(=O)c(S(=O)(=O)c3ccc(F)cc3)cc2c1	inconclusive: 8.91 µM [rising, partial curve]
C[S+](=O)([O-])c1ccc(-c2cc(C(=O)NCCc3ccc(Cl)cc3)nn3cccc23)cc1	inconclusive: 22.4 µM [cytotoxic, partial curve]
CC1=C[C@@H](CNC(=O)C2CCC2)[C@H](C(C)C)C[C@H]1Cc1nc2ccc(F)cc2[nH]1	inconclusive: 28.2 µM [cytotoxic, partial curve, poor fit]
O=C1NC2(CCCN([S+](=O)([O-])c3ccccc3)C2)Oc2ccccc21 (centres undefined)	inconclusive: 0.631 µM [cytotoxic, partial curve, poor fit]
O=[N+]([O-])c1cccc(-c2noc([C@@H]3Cc4nc[nH]c4CN3CC3CCCCC3)n2)c1	inconclusive: 56.2 µM [cytotoxic, single point]
Cc1ccn2c(Nc3ccccc3C)c(-c3ccc(N4CCOCC4)cc3)nc2c1	inconclusive: 39.8 µM [cytotoxic, single point]
COCCNC(=O)CCCN1C(=O)COc2ccc(C(=O)COc3ccc(C(C)(C)C)cc3)cc21	inconclusive: 17.8 µM [cytotoxic, partial curve, poor fit]
Cc1ccc(C2=CC(c3ccccc3C)n3c(nc4ccccc43)N2)cc1 (centres undefined)	inactive
CCCCNc1ncc2c(-c3ccc(CN4CCN(C)CC4)cc3)cn(C3CCC(O)CC3)c2n1 (centres undefined)	inconclusive: 13.4 µM [cytotoxic, partial curve, poor fit]
CCN1c2cc(C(=O)Nc3ccc(Cl)cc3C)ccc2C(=O)N2CCCCCC21 (centres undefined)	inconclusive: 3.55 µM [rising, single point]
O=C(Nc1nccs1)[C@@H]1C[C@@H](c2cccc(C(F)(F)F)c2)N(CC2CCOCC2)C1	inactive
COc1ccc(-c2ccc3ncc4c(c3c2)n(-c2ccc(N3CCNCC3)c(C(F)(F)F)c2)c(=O)n4C)cn1	active: 30.4 µM and inconclusive: 33.6 µM [cytotoxic, single point]
COc1ccc(C(=O)N[C@@H]2CN(Cc3cccc(OC)c3)CCC[C@H]2O)cc1	inactive
COc1ccccc1CN(Cc1ccccc1OC)[C@H]1C[C@@H](Cc2cc(CN3CCOCC3)on2)C1(C)C	inactive
COc1ccc(C(=O)N2CC(=O)N(C3CCCCC3)CC(OCc3ccncc3)C2)c(OC)c1 (centres undefined)	inconclusive: 2.24 µM [cytotoxic, full curve, poor fit]
O=C(Nc1ccc(C(O)(C(F)(F)F)C(F)(F)F)cc1)c1ccc(C(F)(F)F)cc1	inconclusive: 37.7 µM [cytotoxic, single point]
CN1CCC(N[C@H]2C[C@@H](Cc3cc(-c4ccccc4)on3)C2(C)C)CC1	inconclusive: 31.6 µM [cytotoxic, single point]
O=C(Nc1ccc(-c2nc3ccccc3o2)c(O)c1)c1cc(Cl)ccc1Cl	inconclusive: 28.2 µM [cytotoxic, partial curve, poor fit]
COc1ccccc1N1CCN(C(=O)Cn2cccc2-c2nc(-c3ccc(F)cc3)no2)CC1	inactive

Structure (SMILES)	Potency
CC(C)c1cccc(NC(=O)c2ccc(CN3C(=O)NC4(CCOCC4)C3=O)cc2)c1	inconclusive: 22.4 µM [cytotoxic, partial curve, poor fit]
O=C(NC1CC1)[C@@H]1C[C@H](Oc2ccccc2)CN1C(=O)c1n[nH]c(=O)c2ccccc12	inconclusive: 6.31 µM [cytotoxic, partial curve]
CCCCn1c(=O)c(C(=O)NCCCc2ccccc2)nc2cccnc21	inactive
CC1=C[C@@H](CNC2CC2)[C@H](C(C)C)C[C@H]1Cc1nnc(-c2ccc(C)cc2)o1	active: 35.5 µM
Cc1ccn(CC(=O)N2C[C@@H](COc3ccccc3)[C@H](C(N)=O)C2)n1	inconclusive: 7.08 µM [cytotoxic, single point]
Cc1ccc([S+](=O)([O-])N2CCC(c3nn(-c4ccc(F)cc4)c(=O)[nH]3)CC2)cc1	inconclusive: 1.26 µM [rising, full curve]
O=C(c1ccc(Cl)cc1)N1CCC2(Cc3ccccc3NC2=O)C1 (centres undefined)	inconclusive: 15.8 µM [cytotoxic, partial curve, poor fit] and inconclusive: 17.8 µM [cytotoxic, partial curve, poor fit]
Cc1cc(Nc2ncc3c(n2)N(C)C(=O)N(c2cc(NC(=O)c4cccc(C(F)(F)F)c4)ccc2C)C3)n(C)n1	inconclusive: 0.961 µM [cytotoxic, full curve]
COCCn1c(=O)c(C(=O)N2CCN(Cc3ccccc3)CC2)nc2cccnc21	inactive
CCOC(=O)c1ccc(N2C(=O)c3n[nH]c(-c4cccs4)c3C2c2ccc(CC)cc2)cc1 (centres undefined)	inconclusive: 31.6 µM [cytotoxic, single point]
Cc1ccc(NC(=O)CN2CCN(c3ccccc3F)CC2)cc1F	inconclusive: 0.891 µM [rising, full curve, poor fit]
CC[C@H]1CN(S(=O)(=O)c2ccc(OC)cc2)CC[C@H]1CC(=O)Nc1nccs1	inconclusive: 25.1 µM [cytotoxic, partial curve, poor fit]
NCc1cccc(-c2cc(C(F)(F)F)ccc2Cl)c1	inactive
Cc1ccc(Cn2c(C)c(CNCC(C)c3ccccc3)c(C(=O)O)c2C)cc1 (centres undefined)	inconclusive: 2.24 µM [cytotoxic, partial curve, poor fit]
CCOC(=O)c1cccc(NS(=O)(=O)c2ccc3[nH]c4c(c3c2)CCCC4)c1	inconclusive: 39.8 µM [cytotoxic, single point]
Cc1cccc(C(=O)NCCc2nc3ccccc3n2Cc2ccc(Cl)cc2)c1	inconclusive: 31.6 µM [cytotoxic, single point]
CCCCn1c(=NC(=O)c2c(-c3c(F)cccc3Cl)noc2C)c(C(=O)OCC)cc2c(=O)n3ccccc3nc21	inconclusive: 22.4 µM [rising, single point]
O=C(c1cnco1)N(CCN1CCCCC1)CC1CCCN(C2CCCC2)C1 (centres undefined)	inconclusive: 39.8 µM [cytotoxic, single point]
CCSc1ncc(Cl)c(C(=O)N(Cc2ccccc2)c2ccc(OC)cc2)n1	inconclusive: 25.1 µM [cytotoxic, single point]
